Laboratory results reported in the supplement of paper PMC12217912.
This is one part of the list. The full chains were built here from the parent and the listed change. Values near 0.05 are background.

B1: TEV protease; numbered along this chain (parent)
chain: MGESLFKGPRDYNPISSSICHLTNESDGHTTSLYGIGFGPFIITNKHLFRRNNGTLVVQSLHGVFKVKDTTTLQQHLVDGRDMIIIRMPKDFPPFPQKLKFREPQREERICLVTTNFQTKSMSSMVSDTSCTFPSGDGIFWKHWIQTKDGQCGSPLVSTRDGFIVGIHSASNFTNTNNYFTSVPKNFMELLTNQEAQQWVSGWRLNADSVLWGGHKVFMVKPEEPFQPVKEATQL

Variants of: B1
Assay: raw area under fraction-flipped curve 0-4 h after induction (AUC4h, not background-subtracted), DNA-recorder readout of cleavage of the substrate (dimensionless); higher = more cleavage of the substrate by the protease variant
Settings: temperature: 34 °C; time window: 0-4 h after rhamnose induction
Method: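 In vivo DNA recorder in E. coli TOP10(DE3) ΔrhaA at 34 °C. Each TEVp single-site mutant (parent TEVp 0) is paired with a single-site variant of the 7-mer TEVs (canonical ENLYFQ|S). The substrate sits between flexible linkers in a Bxb1-sfGFP-TEVs-SsrA fusion, so cleavage stabilises Bxb1 and speeds flipping of a recombination array, read by NGS. The value is the raw area under the fraction-flipped curve over 0-4 h after rhamnose induction (AUC4h), with ≥20 reads per time point. It is not background-subtracted; inactive controls average about 0.047.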
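Further: Bxb1 expression induced with 0.2% (w/v) L-rhamnose at OD600 near 0.5, cultures sampled hourly, flipped fraction per protease–substrate barcode pair counted by paired-end Illumina sequencing.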

Variant	area with substrate ENLYFAS	area with substrate ENLYFES	area with substrate ENLYFFS	area with substrate ENLYFGS	area with substrate ENLYFIS	area with substrate ENLYFLS	area with substrate ENLYFMS	area with substrate ENLYFNS	area with substrate ENLYFRS	area with substrate ENLYFSS	area with substrate ENLYFTS	area with substrate ENLYFWS	area with substrate ENLYFYS	area with substrate ENLYFCS	area with substrate ENLYFKS	area with substrate ENLYFPS	area with substrate ENLYFVS	area with substrate ENLYFDS	area with substrate ENLYFHS
G136H	0.055	0.0593	0.0746	0.0759	0.0513	0.0599	0.0784	0.0783	0.03	0.0614	0.0618	0.0647	0.0604						
G136L	0.054	0.054	0.07	0.0547	0.0532	0.0669	0.0542		0.0781	0.0459	0.0612	0.0553		0.0639	0.0637	0.0637	0.055		
G136Q	0.0537	0.0472	0.0666		0.0606		0.0513	0.0807	0.058	0.0555	0.049	0.0615	0.0556	0.0685	0.0711	0.0614	0.0746	0.0613	0.0681
G136R	0.0582	0.0759		0.0513	0.0503		0.0735	0.0531	0.069	0.0586		0.0676	0.0586	0.0607	0.0579	0.0597	0.0602		0.0628
G136T	0.0441	0.0661	0.069		0.0584	0.0565	0.0723	0.0645	0.0711	0.0591	0.0575	0.0605	0.0132	0.0569	0.0794	0.0533	0.0414	0.0402	0.0611
G136W	0.0679	0.0659	0.071	0.0586	0.0562	0.0264	0.0662	0.0575				0.0641	0.0534		0.0537	0.0509	0.0609	0.0171	
F140R	0.0561	0.0616	0.0748	0.0677	0.0606	0.0509	0.061	0.0517	0.0589	0.0645	0.0596	0.0532	0.0502	0.0615	0.0558	0.0516	0.0577	0.0552	0.0682
K142G	0.0593	0.0589	0.0646	0.0556	0.0557	0.0339	0.0694	0.0659	0.0556	0.0508	0.0623	0.0594	0.0597	0.0564	0.0598	0.067	0.0607	0.0541	0.0559
W144C	0.0726	0.0443	0.0735	0.0706	0.0574		0.0569	0.0832	0.0597		0.0718				0.0696	0.0622		0.0548	0.0556
W144H	0.061	0.0751	0.0548	0.0769	0.0686	0.0585	0.0659	0.0628	0.0586	0.0585	0.0629	0.0573		0.0515	0.0581	0.0386			
W144M	0.0774	0.0751	0.0726		0.064	0.0563		0.061	0.0738				0.0662	0.0667	0.0956	0.0294	0.0632	0.071	
